This is an account of results in article PMC4336329 (PLoS ONE, 2015).

About 14,000 (4.5%) of roughly 310,000 compounds showed an effect of 50% or more. Effects have a minus sign here. This is one part of the list.
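Also: peak tail current of the secondary pulse compared with the same well before compound.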

In the assay the target is human ether-à-go-go-related gene (hERG) potassium channel (human, UniProt Q12809). In words: primary screen, population patch clamp on CHO cells stably expressing hERG.
human ether-à-go-go-related gene (hERG) potassium channel, sequence (Q12809 whole entry, looked up): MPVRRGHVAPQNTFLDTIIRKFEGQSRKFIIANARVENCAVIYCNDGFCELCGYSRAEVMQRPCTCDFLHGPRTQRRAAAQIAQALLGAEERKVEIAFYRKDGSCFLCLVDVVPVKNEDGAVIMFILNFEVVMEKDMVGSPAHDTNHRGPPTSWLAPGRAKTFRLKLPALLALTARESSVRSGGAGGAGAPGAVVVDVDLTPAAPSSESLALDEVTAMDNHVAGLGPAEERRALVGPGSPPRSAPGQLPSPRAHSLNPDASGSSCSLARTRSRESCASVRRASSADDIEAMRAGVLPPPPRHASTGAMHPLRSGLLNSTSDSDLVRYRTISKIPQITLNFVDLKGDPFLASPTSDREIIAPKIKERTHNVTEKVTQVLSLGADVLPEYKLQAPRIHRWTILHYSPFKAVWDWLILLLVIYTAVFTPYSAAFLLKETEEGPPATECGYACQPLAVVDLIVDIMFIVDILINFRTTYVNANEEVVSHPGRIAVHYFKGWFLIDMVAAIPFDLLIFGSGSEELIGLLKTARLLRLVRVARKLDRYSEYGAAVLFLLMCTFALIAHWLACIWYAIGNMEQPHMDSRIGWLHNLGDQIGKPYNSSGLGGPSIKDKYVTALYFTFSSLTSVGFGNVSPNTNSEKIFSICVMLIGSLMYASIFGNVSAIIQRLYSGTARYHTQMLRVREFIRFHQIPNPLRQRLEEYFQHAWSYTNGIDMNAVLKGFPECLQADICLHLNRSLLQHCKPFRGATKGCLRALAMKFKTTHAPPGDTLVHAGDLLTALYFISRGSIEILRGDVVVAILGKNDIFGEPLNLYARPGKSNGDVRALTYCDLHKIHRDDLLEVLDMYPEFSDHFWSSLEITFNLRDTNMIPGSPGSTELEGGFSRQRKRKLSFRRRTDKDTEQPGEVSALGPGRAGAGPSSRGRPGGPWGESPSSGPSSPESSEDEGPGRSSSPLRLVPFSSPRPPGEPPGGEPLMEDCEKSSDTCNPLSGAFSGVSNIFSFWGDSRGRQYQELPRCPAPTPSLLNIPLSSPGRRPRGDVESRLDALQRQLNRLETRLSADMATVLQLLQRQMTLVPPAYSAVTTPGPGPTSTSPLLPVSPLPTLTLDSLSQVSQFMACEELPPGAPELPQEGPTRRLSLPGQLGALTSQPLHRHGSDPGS
Regarding `Cc1cc(NC(=O)C2CCCN(S(=O)(=O)c3c(C)noc3C)C2)n[nH]1` (centres unmarked), the “hERG current change (%, negative = inhibition) at 10uM” value is -16.1%.
With `CCN=C1S/C(=C/c2ccc(-c3ccc(Cl)cc3C(=O)O)o2)C(=O)N1CC`, the “hERG current change (%, negative = inhibition) at 10uM” value turned out to be 25.3%.
Then `CN(C(=O)c1cc(-n2cnnc2)ccc1Cl)c1ccccc1`, with 8.56%; and `CCN(CC)CCCNC(=O)CC1Oc2ccc(C)cc2NC1=O` (centres unmarked), with 0.515%; and `CCOc1ccc(CN2CCN(Cc3ccc(C)o3)CC2CCO)cc1` (centres unmarked), with -104%.
Then `CC(C)(C)c1cc[n+](CC(=O)Nc2cc(C(F)(F)F)ccc2N2CCOCC2)cc1.[Cl-]`, with 0.427%; and `COCCN(CCOC)S(=O)(=O)c1ccc(C(=O)Nc2sc3c(c2C(N)=O)CCCCC3)cc1`, with 18.7%.
With `CC(C)(C)C(=O)Nc1nnc(-c2ccncc2)o1` the figure was 18.7%.
As for `CCN(CC(=O)NCc1cccs1)C(=O)/C=C/c1ccc(Cl)c(Cl)c1`, the “hERG current change (%, negative = inhibition) at 10uM” value is given as -41.1%.
Then `COC(=O)c1[nH]c2c(c1C(=O)OC)CCc1ccccc1-2`, with 4.35%; and `Cc1ccc(NC(=O)CCc2ccc(C)o2)c(Br)c1`, with 5.35%; and `CCC(C)(C)NC(=O)c1ccc2c(c1)N(CC(=O)N1CCCC1)C(=O)C(C)(C)O2`, with 11.1%.
On to `O=C(NCc1cc([N+](=O)[O-])ccc1O)c1cccnc1Sc1ccccc1`, for which the “hERG current change (%, negative = inhibition) at 10uM” value is listed as -21.6%.
With `COc1ccccc1N1CCN(/N=C/c2ccc(C(=O)O)cc2)CC1` the figure was 16.3%; with `CCCSc1nnc2n(N)c(=O)c3ccccc3n12`, -8.29%.
With `COc1ccc(C(=O)c2cc([N+](=O)[O-])ccc2N2CCOCC2)cc1` the figure was -23.5%; with `N#Cc1ccc(NC(=O)Nc2ccc(Oc3ccc(NC(=O)Nc4ccc(C#N)cc4)cc3)cc2)cc1`, 11.4%.
Then `Cc1cccc(OCC(=O)N/N=C/c2cccn2C)c1`, with -2.24%.
For `O=C(c1ccccc1F)N(Cc1cccnc1)Cc1cc2cc3c(cc2[nH]c1=O)OCCO3`, the “hERG current change (%, negative = inhibition) at 10uM” value came to 4.98%.
On to `Cc1c(C2Nc3ccccc3NC3=C2C(=O)CC(C)(C)C3)cnn1C` (centres unmarked), for which the “hERG current change (%, negative = inhibition) at 10uM” value turned out to be 15.6%.
With `C=CC(=O)Oc1ccc(N2Cc3ccccc3C2=O)cc1`, the “hERG current change (%, negative = inhibition) at 10uM” value is 19.1%.
With `Cc1c(N=NC2=C(O)CC(C)(C)CC2=O)c(=O)n(-c2ccccc2)n1C` the figure was -3.39%; with `CCn1ccnc1CN1CCCC(CO)(Cc2cccc(OC)c2)C1` (centres unmarked), -17.7%.
Then `COc1ccc(NC2=C(C(C)=O)C(c3ccc(OC)c(OC)c3)C(C(C)=O)C(C)(O)C2)cc1` (centres unmarked), with 4.14%.
Regarding `CCCCN(C(=S)Nc1ccccc1)C1CCS(=O)(=O)C1` (centres unmarked), the “hERG current change (%, negative = inhibition) at 10uM” value was -0.981%.
With `CCCCCC(=O)N1CCN(c2ccc(C(C)=O)cc2F)CC1` the figure was -60.9%; with `CC(C)Oc1ccc(C(CC(=O)O)NC(=O)c2cccs2)cc1` (centres unmarked), -2.74%; with `CCOC(=O)c1ccc(NC(=O)c2nc[nH]c2C(=O)N[C@@H](CC(C)C)C(=O)OCc2ccccc2)cc1`, -2.77%.
As for `O=CNCc1nc2ccccc2n1CCc1ccccc1`, the “hERG current change (%, negative = inhibition) at 10uM” value was determined as 10%.
With `COc1ccc(OC)c(NC(=O)CN(Cc2ccccc2)S(C)(=O)=O)c1` the figure was 25.9%.
Then `COc1ccc(NC(=S)c2ccc(N(C)C)cc2)cc1`, with -2.75%; and `CN(C)CC1CSCCC1(O)c1ccc(Cl)cc1.Cl` (centres unmarked), with 1.69%; and `O=C(NCCc1csc(-c2cccnc2)n1)c1ccc(Cl)cc1`, with -25.5%.
Consider `Cn1cc(/C=N/NC(=O)c2cc3cc(Br)ccc3o2)c2ccccc21`, for which the “hERG current change (%, negative = inhibition) at 10uM” value was 9.06%.
With `Cc1cc(C)n(-c2nc(-n3nc(C)cc3C)c3c4c(sc3n2)COC(C)(C)C4)n1` the figure was -2.71%; with `COc1ccccc1NC(=O)CSc1nc(O)cc(=O)n1-c1ccccc1OC`, 9.9%.
Then `Cn1c(/C(C#N)=C(\O)COc2ccc3ccccc3c2)nc2ccccc21`, with 14.5%; and `CCCc1n[nH]c2c1C(=O)CC(C)(C)C2`, with 8.95%.
Consider `CC1CCCCN1CCNC(=O)CC1Oc2ccccc2NC1=O` (centres unmarked), for which the “hERG current change (%, negative = inhibition) at 10uM” value is recorded as -3.18%.
With `Cc1ccc(NC(=O)CNCCCN2CCOCC2)cc1S(=O)(=O)N1CCCCC1.O=C(O)C(=O)O` the figure was -12.5%.
With `CCN(CC)C(=O)COc1c(-c2ccco2)oc2ccccc2c1=O` the figure was -7.02%; with `CCCCN(C)CCOc1ccccc1OCC.O=C(O)C(=O)O`, -25.3%.
With `Cc1ccc(-c2cc(C(F)(F)F)n3nc(C(=O)Nc4c(C)n(C)n(-c5ccccc5)c4=O)cc3n2)cc1`, the “hERG current change (%, negative = inhibition) at 10uM” value is -14.3%.
With `CCOc1ccc(N(C)S(=O)(=O)c2ccc(C)c(C(=O)Nc3nnc(C4CC4)s3)c2)cc1`, the “hERG current change (%, negative = inhibition) at 10uM” value turned out to be 0.279%.
`Cc1ccc(-c2nnc(CN3CCCCC3C)o2)cc1` (centres unmarked): the “hERG current change (%, negative = inhibition) at 10uM” value is -3.98%.
Take `C/C(=N\NC(=O)c1cccs1)c1ccc2c(c1)OCO2`: the “hERG current change (%, negative = inhibition) at 10uM” value was found to be 12.1%.
Then `CCOC(=O)CC1C(=O)NCCN1C(=S)NC(=O)c1ccccc1OC` (centres unmarked), with 20.9%; and `CN(Cc1ccccc1)C(=O)NC1CCCCC1`, with -13.6%.
With `O=C(CN1C(=O)NC2(CCCc3ccccc32)C1=O)c1ccc(Br)cc1` (centres unmarked) the figure was -20.4%.
`COC(=O)CSc1nc(NCC(C)C)nc(N2CCOCC2)n1`: the “hERG current change (%, negative = inhibition) at 10uM” value is reported as -4.48%.
Regarding `COc1ccc2nc(NC(=O)CSc3nccc(C)n3)sc2c1`, the “hERG current change (%, negative = inhibition) at 10uM” value was -48.8%.
Then `O=C(CN1CCN(Cc2ccccc2Cl)C1=O)NC1CCCCCC1`, with -3.06%; and `CC(=O)c1ccc(N(C(=O)Cn2nnc3ccccc32)C(C(=O)NCc2ccccc2)c2ccccn2)cc1` (centres unmarked), with -73.2%; and `COCCNC(=O)C1(S(=O)(=O)c2ccccc2)CC=CC1`, with 3.03%.
With `CCOC(=O)c1ccc(NC(=O)CC2OCCN(CC)C2=O)cc1` (centres unmarked) the figure was -11.8%.
With `Cc1ccc(SCC(=O)Nc2ccc(S(=O)(=O)Nc3ncccn3)cc2)cc1`, the “hERG current change (%, negative = inhibition) at 10uM” value was determined as 31.4%.
Then `CCOC(=O)CCCNC(=O)COc1ccccc1C#N`, with 22%.
On to `Cc1cccc(N(C(=O)c2snc(C(N)=O)c2N)C(C(=O)NCC2CCCO2)c2ccc(N(C)C)cc2)c1` (centres unmarked), for which the “hERG current change (%, negative = inhibition) at 10uM” value turned out to be 22.9%.
Then `CC(C)(C)c1ccc(NC(=O)COC(=O)CCc2nc3ccccc3c(=O)[nH]2)cc1`, with -42.8%; and `O=C(c1cccnc1Cl)N1CCOCC1`, with 18.6%; and `C=C(C)COc1ccc(-c2nc(N)ncc2Oc2ccccc2OCC)c(O)c1`, with 17.3%.
Regarding `Cc1ccc(-c2cc(C(F)(F)F)n3ncc(C(=O)N4CCCc5ccccc54)c3n2)cc1`, the “hERG current change (%, negative = inhibition) at 10uM” value was -0.405%.
Turning to `CN(Cc1cccs1)S(=O)(=O)c1ccc(Cl)cc1F`, the “hERG current change (%, negative = inhibition) at 10uM” value is -12.5%.
With `Cc1c(C)c2ccc(OCC(=O)Nc3cccnc3)c(C)c2oc1=O` the figure was 3.99%.
On to `CNC(=O)COC(=O)c1cc2c(C)nn(-c3ccc(F)cc3)c2s1`, for which the “hERG current change (%, negative = inhibition) at 10uM” value was -16.1%.
Then `Oc1ccc(-c2nnc(SCC3CCCCC3)o2)cc1`, with -11.2%; and `O=C1C2C3CCCC3=C3CCCC3C2C(=O)N1c1cccc(Cl)c1` (centres unmarked), with 8.79%.
In the case of `CC(=O)Nc1ccccc1C(=O)C(=O)Nc1cccc(C(=O)NCC2CCCO2)c1` (centres unmarked), the “hERG current change (%, negative = inhibition) at 10uM” value was found to be 8.98%.
Then `CCOc1ccc(OCc2ccc(C(=O)Nc3cccnc3)cc2)cc1`, with 17.7%; and `Cc1ccccc1NC(=O)CCN1CCCC1.Cl`, with 5.09%; and `O=C(Nc1cccc2nsnc12)c1cccnc1`, with 7.77%.
With `CC(C)n1nccc1N(Cc1ccc(Cl)cc1)S(=O)(=O)c1ccccc1` the figure was -12%; with `Cl.OC(COCc1ccc(Cl)cc1)CN1CCCCC1` (centres unmarked), -35.8%; with `COc1ccccc1-c1nc2c(c(SCC(=O)N3CCCCC3)n1)Cc1c(CO)cnc(C)c1O2`, -6.81%.
As for `Nc1nc(SCC(=O)c2cc(F)ccc2F)n[nH]1`, the “hERG current change (%, negative = inhibition) at 10uM” value came out at 12.5%.
With `CCOC(=O)Cc1cc(OC)c(OC)cc1Cc1cc(OC)c(OC)cc1CC(=O)OCC` the figure was 9.74%; with `COc1ccc(NC(=O)CSc2nnc(Cc3ccccc3)c(=O)n2N)cc1OC`, -4.29%.
With `COc1ccc(NC(=S)Nc2cccc(Cl)c2)cc1OC` the figure was 10.7%.
Consider `Cc1ccccc1Cn1c2ccccc2c2cn[nH]c(=O)c21`, for which the “hERG current change (%, negative = inhibition) at 10uM” value was found to be 14.2%.
Regarding `NC(=O)[C@@H]1CCCN1C(=O)[C@@H](Cc1cnc[nH]1)NC(=O)[C@@H]1CCC(=O)N1`, the “hERG current change (%, negative = inhibition) at 10uM” value was -0.464%.
As for `Cc1ccc(N/N=C(\C#N)C(N)=S)cc1C`, the “hERG current change (%, negative = inhibition) at 10uM” value is recorded as -20.6%.
With `Cc1ccccc1C(=O)Nc1c(C)[nH]c(=O)[nH]c1=O` the figure was 5.89%; with `COc1ccc(/C(C)=N/NC(=O)CNC(=O)C(c2ccccc2)c2ccccc2)c(OC)c1`, -0.824%; with `CC(=O)OC1COC(n2ccc3cc([N+](=O)[O-])ccc32)C(OC(C)=O)C1OC(C)=O` (centres unmarked), -12.2%.
With `CN(CCO)C(=O)c1ccc(-c2nn(C)c(=O)c3ccccc23)cc1` the figure was 10.9%; with `COC(=O)c1sccc1NC(=O)c1ccc(OC)c([N+](=O)[O-])c1`, 29.3%.
As to `CCN(CC)c1ccc(NC(=O)Cn2cc3c(n2)CCC(C)C3)c(C)c1` (centres unmarked), the “hERG current change (%, negative = inhibition) at 10uM” value is given as -3.35%.
Regarding `CCc1c(C)[nH]c2nc3ccccc3n2c1=O`, the “hERG current change (%, negative = inhibition) at 10uM” value was found to be 4.86%.
Regarding `COc1ccccc1CC(=O)Nc1cccc2c1CCCC2`, the “hERG current change (%, negative = inhibition) at 10uM” value is -8.33%.
